# Measurements taken from the supplement of paper PMC8728848.
# This is one part of the list.
# Assays:
# Experiment in all cases: glycan array binding signal (z-score within array); higher = stronger binding
# Details in all cases: glycan notation: IUPAC condensed, linker removed
# Man(a1-6)Man = molecular target: Man(a1-6)Man
# Summary of the method: (§1)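 The binding signal is a Z-score computed within each array. Data were drawn from 3228 arrays in the Consortium for Functional Glycomics database, restricted to those with a known protein sequence. Scores were averaged over arrays of the same protein sequence at different concentrations or buffers, and over linkers, and negative values can be taken as non-binding.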
# Man(b1-4)GlcNAc = molecular target: Man(b1-4)GlcNAc
# Summary of the method: as §1
# MurNAc(b1-4)GlcNAc = molecular target: MurNAc(b1-4)GlcNAc
# Summary of the method: as §1
# Neu5Ac(a2-3)Gal = molecular target: Neu5Ac(a2-3)Gal
# Summary of the method: as §1
# [1] = molecular target: Neu5Ac(a2-3)Gal(b1-3)GalNAc
# Summary of the method: as §1
# [2] = molecular target: Neu5Ac(a2-3)Gal(b1-3)GalNAc(b1-3)Gal(a1-4)Gal(b1-4)Glc
# Summary of the method: as §1
# [3] = molecular target: Neu5Ac(a2-3)Gal(b1-3)GalNAc(b1-3)Gal(b1-4)GlcNAc
# Summary of the method: as §1
# [4] = molecular target: Neu5Ac(a2-3)Gal(b1-3)GalNAc(b1-4)[Neu5Ac(a2-3)]Gal(b1-4)Glc
# Summary of the method: as §1
# [5] = molecular target: Neu5Ac(a2-3)Gal(b1-3)GalNAc(b1-4)[Neu5Ac(a2-8)Neu5Ac(a2-3)]Gal(b1-4)Glc
# Summary of the method: as §1
# [6] = molecular target: Neu5Ac(a2-3)Gal(b1-3)GalNAc6S
# Summary of the method: as §1
# [7] = molecular target: Neu5Ac(a2-3)Gal(b1-3)GlcNAc
# Summary of the method: as §1
# [8] = molecular target: Neu5Ac(a2-3)Gal(b1-3)GlcNAc(b1-2)Man
# Summary of the method: as §1
# [9] = molecular target: Neu5Ac(a2-3)Gal(b1-3)GlcNAc(b1-2)Man(a1-3)[GlcNAc(b1-4)][Neu5Ac(a2-3)Gal(b1-3)GlcNAc(b1-2)Man(a1-6)]Man(b1-4)GlcNAc(b1-4)GlcNAc
# Summary of the method: as §1
# [10] = molecular target: Neu5Ac(a2-3)Gal(b1-3)GlcNAc(b1-2)Man(a1-3)[Neu5Ac(a2-3)Gal(b1-3)GlcNAc(b1-2)Man(a1-6)]Man(b1-4)GlcNAc(b1-4)GlcNAc
# Summary of the method: as §1
# [11] = molecular target: Neu5Ac(a2-3)Gal(b1-3)GlcNAc(b1-3)Gal(b1-3)GlcNAc
# Summary of the method: as §1
# [12] = molecular target: Neu5Ac(a2-3)Gal(b1-3)GlcNAc(b1-3)Gal(b1-4)GlcNAc
# Summary of the method: as §1
# [13] = molecular target: Neu5Ac(a2-3)Gal(b1-3)GlcNAc(b1-3)GalNAc
# Summary of the method: as §1
# [14] = molecular target: Neu5Ac(a2-3)Gal(b1-3)GlcNAc(b1-4)Gal(b1-4)Glc
# Summary of the method: as §1
# [15] = molecular target: Neu5Ac(a2-3)Gal(b1-3)GlcNAc(b1-6)GalNAc
# Summary of the method: as §1
# [16] = molecular target: Neu5Ac(a2-3)Gal(b1-3)GlcNAc6S
# Summary of the method: as §1
# [17] = molecular target: Neu5Ac(a2-3)Gal(b1-3)[Fuc(a1-4)]GlcNAc
# Summary of the method: as §1
# [18] = molecular target: Neu5Ac(a2-3)Gal(b1-3)[Fuc(a1-4)]GlcNAc(b1-3)Gal(b1-3)[Fuc(a1-4)]GlcNAc
# Summary of the method: as §1
# [19] = molecular target: Neu5Ac(a2-3)Gal(b1-3)[Fuc(a1-4)]GlcNAc(b1-3)Gal(b1-4)[Fuc(a1-3)]GlcNAc
# Summary of the method: as §1
# [20] = molecular target: Neu5Ac(a2-3)Gal(b1-3)[GlcNAc(b1-6)]GalNAc
# Summary of the method: as §1
# [21] = molecular target: Neu5Ac(a2-3)Gal(b1-3)[Neu5Ac(a2-3)Gal(b1-4)]GlcNAc
# Summary of the method: as §1
# [22] = molecular target: Neu5Ac(a2-3)Gal(b1-3)[Neu5Ac(a2-6)]GalNAc
# Summary of the method: as §1
# [23] = molecular target: Neu5Ac(a2-3)Gal(b1-3)[Neu5Ac(a2-6)]GlcNAc(b1-3)[Fuc(a1-3)[Gal(b1-4)]GlcNAc(b1-6)]Gal(b1-4)Glc
# Summary of the method: as §1
# [24] = molecular target: Neu5Ac(a2-3)Gal(b1-3)]Neu5Ac(a2-3)Gal(b1-4)]GlcNAc
# Summary of the method: as §1
# Neu5Ac(a2-3)Gal(b1-4)Glc = molecular target: Neu5Ac(a2-3)Gal(b1-4)Glc
# Summary of the method: as §1
# [25] = molecular target: Neu5Ac(a2-3)Gal(b1-4)GlcNAc
# Summary of the method: as §1
# [26] = molecular target: Neu5Ac(a2-3)Gal(b1-4)GlcNAc(b1-2)Man
# Summary of the method: as §1
# [27] = molecular target: Neu5Ac(a2-3)Gal(b1-4)GlcNAc(b1-2)Man(a1-3)[GlcNAc(b1-4)][Neu5Ac(a2-3)Gal(b1-4)GlcNAc(b1-2)Man(a1-6)]Man(b1-4)GlcNAc(b1-4)GlcNAc
# Summary of the method: as §1
# [28] = molecular target: Neu5Ac(a2-3)Gal(b1-4)GlcNAc(b1-2)Man(a1-3)[Neu5Ac(a2-3)Gal(b1-4)GlcNAc(b1-2)Man(a1-6)]Man(b1-4)GlcNAc(b1-4)GlcNAc
# Summary of the method: as §1
# [29] = molecular target: Neu5Ac(a2-3)Gal(b1-4)GlcNAc(b1-2)Man(a1-3)[Neu5Ac(a2-3)Gal(b1-4)GlcNAc(b1-2)Man(a1-6)]Man(b1-4)GlcNAc(b1-4)[Fuc(a1-6)]GlcNAc
# Summary of the method: as §1
# [30] = molecular target: Neu5Ac(a2-3)Gal(b1-4)GlcNAc(b1-2)Man(a1-3)[Neu5Ac(a2-6)Gal(b1-4)GlcNAc(b1-2)Man(a1-6)]Man(b1-4)GlcNAc(b1-4)GlcNAc
# Summary of the method: as §1
# [31] = molecular target: Neu5Ac(a2-3)Gal(b1-4)GlcNAc(b1-2)[Neu5Ac(a2-3)Gal(b1-4)GlcNAc(b1-4)]Man(a1-3)[GlcNAc(b1-4)][Neu5Ac(a2-3)Gal(b1-4)GlcNAc(b1-2)[Neu5Ac(a2-3)Gal(b1-4)GlcNAc(b1-6)]Man(a1-6)]Man(b1-4)GlcNAc(b1-4)GlcNAc
# Summary of the method: as §1
# [32] = molecular target: Neu5Ac(a2-3)Gal(b1-4)GlcNAc(b1-2)[Neu5Ac(a2-3)Gal(b1-4)GlcNAc(b1-4)]Man(a1-3)[GlcNAc(b1-4)][Neu5Ac(a2-3)Gal(b1-4)GlcNAc(b1-4)Man(a1-6)]Man(b1-4)GlcNAc(b1-4)GlcNAc
# Summary of the method: as §1
# [33] = molecular target: Neu5Ac(a2-3)Gal(b1-4)GlcNAc(b1-2)[Neu5Ac(a2-3)Gal(b1-4)GlcNAc(b1-6)]Man(a1-6)[Neu5Ac(a2-3)Gal(b1-4)GlcNAc(b1-2)Man(a1-3)]Man(b1-4)GlcNAc(b1-4)GlcNAc
# Summary of the method: as §1
binder,measurement,setting,value
GSL-I (Griffonia simplicifolia) (protein) FNLPNFWSDVKDNIIFQGDANTTAGTLQLCKTNQYGNPLQYRAGRALYSDPVQLWDNKTGSVASFYTEFTFFLKITGDGPADGLAFFLAPPDSDVKDAGAYLGLFNKSTATQPSKNQVVAVEFDTWKNTDFPEPSYRHIGINVNSIVSVATKRWEDSDIFSGKIATARISYDGSAKILTVVLSYPDGADYILSHSVDLSKNLPNPIRVGISASTGANQFLTVYVLSWRFSSALQSTSVNAAMGPEIIRTVV,glycan array binding signal (z-score),Man(a1-6)Man,-0.131
same,glycan array binding signal (z-score),Man(b1-4)GlcNAc,-0.164
same,glycan array binding signal (z-score),MurNAc(b1-4)GlcNAc,-0.186
same,glycan array binding signal (z-score),Neu5Ac(a2-3)Gal,-0.186
same,glycan array binding signal (z-score),[1],-0.31
same,glycan array binding signal (z-score),[2],-0.15
same,glycan array binding signal (z-score),[3],-0.315
same,glycan array binding signal (z-score),[4],-0.245
same,glycan array binding signal (z-score),[5],-0.109
same,glycan array binding signal (z-score),[6],-0.211
same,glycan array binding signal (z-score),[7],-0.225
same,glycan array binding signal (z-score),[8],-0.133
same,glycan array binding signal (z-score),[9],-0.263
same,glycan array binding signal (z-score),[10],-0.225
same,glycan array binding signal (z-score),[11],-0.152
same,glycan array binding signal (z-score),[12],-0.234
same,glycan array binding signal (z-score),[13],-0.127
same,glycan array binding signal (z-score),[14],-0.224
same,glycan array binding signal (z-score),[15],-0.234
same,glycan array binding signal (z-score),[16],0.048
same,glycan array binding signal (z-score),[17],-0.301
same,glycan array binding signal (z-score),[18],-0.009
same,glycan array binding signal (z-score),[19],-0.244
same,glycan array binding signal (z-score),[20],-0.286
same,glycan array binding signal (z-score),[21],-0.318
same,glycan array binding signal (z-score),[22],-0.189
same,glycan array binding signal (z-score),[23],-0.185
same,glycan array binding signal (z-score),[24],-0.158
same,glycan array binding signal (z-score),Neu5Ac(a2-3)Gal(b1-4)Glc,-0.154
same,glycan array binding signal (z-score),[25],-0.25
same,glycan array binding signal (z-score),[26],-0.07
same,glycan array binding signal (z-score),[27],-0.295
same,glycan array binding signal (z-score),[28],-0.119
same,glycan array binding signal (z-score),[29],-0.283
same,glycan array binding signal (z-score),[30],-0.197
same,glycan array binding signal (z-score),[31],-0.195
same,glycan array binding signal (z-score),[32],-0.277
same,glycan array binding signal (z-score),[33],-0.144
